Results reported in the BET-seq Pho4 binding data (Le et al. 2018).
The list shows a part of the results. These are noisy estimates, calculated here from bound and input reads.

What follows are sequences tested against T1, Pho4 (S. cerevisiae) (UniProt P07270) (assay: relative binding free energy (BET-seq); higher = weaker binding). Settings: reference: library average.
T1 sequence: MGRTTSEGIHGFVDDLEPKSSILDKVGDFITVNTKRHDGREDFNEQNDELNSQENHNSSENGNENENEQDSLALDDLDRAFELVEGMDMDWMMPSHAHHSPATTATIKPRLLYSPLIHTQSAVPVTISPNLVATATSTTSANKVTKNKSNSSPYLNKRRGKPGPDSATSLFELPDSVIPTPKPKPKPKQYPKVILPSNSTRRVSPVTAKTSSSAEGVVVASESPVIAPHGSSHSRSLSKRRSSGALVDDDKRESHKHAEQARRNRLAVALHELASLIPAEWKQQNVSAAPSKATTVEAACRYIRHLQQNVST

Sequence	relative binding free energy [kcal/mol]
TTGAGCACGTGTGGTG	0.01
ATTGTCACGTGGCATT	0
AGATGCACGTGTAGGA	-0.04
GGTTGCACGTGTGAGA	0.2
TTGAACACGTGTGGGG	0.13
TATATCACGTGGTGAC	0.15
GTGATCACGTGTGATA	0.2
TGGGTCACGTGGCATT	0.02
TGTGGCACGTGTGAAC	0.02
TTGGGCACGTGGATTC	-0.01
TTGAGCACGTGAGTAT	0.17
TAGTACACGTGGCGGG	0.01
TGTAACACGTGACTGG	0.19
ATGATCACGTGCGTGT	0.05
CGTGCCACGTGATGGG	-0.06
GCCTTCACGTGTGGGG	0.26
TAGTGCACGTGATTGT	0.13
TAGTGCACGTGAGTTA	0.2
TCGTTCACGTGGCTGG	0.21
GGGTACACGTGGCAAG	0.07
TGATGCACGTGGTTTT	0.07
ATTGACACGTGAAGGT	0.13
TGTCGCACGTGGAGGT	-0.08

Sequence	relative binding free energy [kcal/mol]
CAGGGCACGTGGGTGT	-0.25
GGGGGCACGTGCCGGC	-0.31
CGGTACACGTGTTATG	-0.07
TTATGCACGTGCATTA	-0.1
TCATGCACGTGAGGCG	0.19
ATATGCACGTGTTTCT	-0.03
GGTAGCACGTGGAGCG	0.06
TCTGTCACGTGAGAAT	0.3
CTTTGCACGTGGTAGA	-0.14
GTTGGCACGTGATCAG	0.04
AGGCCCACGTGTTGTA	0.1
GCCGTCACGTGGTTGT	0.08
AAGATCACGTGCGGTT	0.12
TATAGCACGTGCGAGG	-0.09
GGTTGCACGTGGATGT	0.04
CGTTTCACGTGTAATT	0.22
TTTTTCACGTGTCTAG	0.26
CGGTTCACGTGGCGTG	0.22
GATAACACGTGTGGGG	-0.11
CGGGACACGTGGGGAT	-0.17
TCTGTCACGTGTGTGC	0.06
TTTGTCACGTGCGTTT	0.19
GATCTCACGTGGTTAG	0.24

Sequence	relative binding free energy [kcal/mol]
TTGCTCACGTGTTCGT	0.16
GTGTGCACGTGCTCGT	-0.09
TTCGTCACGTGTTTGA	0.12
TCAAGCACGTGGTATG	-0.09
ATGTGCACGTGAGATA	0.19
TCGGTCACGTGGATGT	-0.01
TTGATCACGTGATGCG	0.41
AGGTGCACGTGATTGC	0.12
AGGGCCACGTGGATTA	0.02
GGTTACACGTGTGTGT	0.2
CTTTACACGTGCTTGT	0.04
GTACTCACGTGGTGGA	0.22
GTATTCACGTGTGATA	0.2
GGGTACACGTGGCGGA	-0.05
GTTTACACGTGTAGGT	0.21
CTTGTCACGTGTGAGG	0.23
TATGTCACGTGTCTAG	0.08
GCGGACACGTGGGTCG	-0.12
GTTGGCACGTGGGGAG	-0.09
GTAAACACGTGTATGT	0.07
TATCGCACGTGAATTG	0.24
AGGGTCACGTGAGAGG	0.3
TGAATCACGTGTCATT	0.14

Sequence	relative binding free energy [kcal/mol]
ATGGACACGTGGGCGT	-0.09
GCTCACACGTGGGGGT	0.03
CTAGGCACGTGGTAGT	-0.14
GAGTTCACGTGGTTAT	0.4
TTTAGCACGTGGAGGT	-0.09
AAAGGCACGTGGGTTG	-0.27
AGGGGCACGTGAGGAA	0.17
TTATGCACGTGTCTGT	-0.06
GGGTTCACGTGGTAAC	0.35
TGCGGCACGTGAAGGT	0.09
TGGCTCACGTGATATT	0.31
CGGGTCACGTGTAATT	0.17
TATGACACGTGATTTA	0.14
AAGGGCACGTGATATG	-0.08
GTTCTCACGTGAGTAG	0.39
TGAAACACGTGGGGGA	-0.04
AGTTTCACGTGATGGT	0.34
TTGGGCACGTGTACAT	-0.08
TGAAGCACGTGGGTTG	-0.2
ATGTGCACGTGTAGGA	0
CATTACACGTGATGTG	0.09
TTGGCCACGTGTGTAG	0.01
AGTGCCACGTGGGTTA	-0.09

Sequence	relative binding free energy [kcal/mol]
TTTGTCACGTGATCGA	0.05
GTCAACACGTGTAGTT	0.1
GAAATCACGTGCGGTG	0.25
CGGGGCACGTGAAGTT	0.15
TTTTGCACGTGACGAG	0.05
ATGGCCACGTGTTGTT	-0.12
CCTGTCACGTGGAGGT	-0.02
GGGTGCACGTGGAGCG	-0.01
TATTTCACGTGGCATA	0.17
TAAGGCACGTGGGGTG	-0.2
GAATGCACGTGTGTGA	0.12
GCCTACACGTGTGTGG	0.17
TGGCACACGTGTTTAG	0.14
ATGAACACGTGTGATT	0.1
AGTTACACGTGGTTAA	0.08
AAAATCACGTGATGTT	0.3
ACGTGCACGTGTAAGG	0.02
ATCAGCACGTGTGGCG	0
TCGGGCACGTGTATTT	0
GACATCACGTGTTGGG	0.07
GTCAGCACGTGGGGGA	-0.26
ATGGACACGTGGCAGG	-0.15
TTCATCACGTGAGGGA	0.31
